# From PubChem BioAssay AID488969 (Vanderbilt High Throughput Screening Facility, 2010)
# In all, about 110,000 compounds were measured (“z-score”: median about -0.1, highest 2% from about 2 on). Some of the results follow. Calls of active or inactive are those of the source.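 How the source made its calls: active means z-score in the third read window above 3 or below -3; inactive means the rest.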
# Target: Metabotropic glutamate receptor 8 (Rattus norvegicus) (UniProt P70579)
# Assay: rat mGluR8 modulators via GIRK flux, primary screen, cell-based, thallium flux, HTS (AID 488969)
# Conditions: HEK293 rat mGluR8, GIRK (G protein-gated inwardly rectifying potassium channel) thallium flux, FluoZin2; at 10 µM; stronger effect = higher value; submaximal glutamate (EC20) added with thallium
# UniProt P70579, sequence (P70579 whole entry, looked up): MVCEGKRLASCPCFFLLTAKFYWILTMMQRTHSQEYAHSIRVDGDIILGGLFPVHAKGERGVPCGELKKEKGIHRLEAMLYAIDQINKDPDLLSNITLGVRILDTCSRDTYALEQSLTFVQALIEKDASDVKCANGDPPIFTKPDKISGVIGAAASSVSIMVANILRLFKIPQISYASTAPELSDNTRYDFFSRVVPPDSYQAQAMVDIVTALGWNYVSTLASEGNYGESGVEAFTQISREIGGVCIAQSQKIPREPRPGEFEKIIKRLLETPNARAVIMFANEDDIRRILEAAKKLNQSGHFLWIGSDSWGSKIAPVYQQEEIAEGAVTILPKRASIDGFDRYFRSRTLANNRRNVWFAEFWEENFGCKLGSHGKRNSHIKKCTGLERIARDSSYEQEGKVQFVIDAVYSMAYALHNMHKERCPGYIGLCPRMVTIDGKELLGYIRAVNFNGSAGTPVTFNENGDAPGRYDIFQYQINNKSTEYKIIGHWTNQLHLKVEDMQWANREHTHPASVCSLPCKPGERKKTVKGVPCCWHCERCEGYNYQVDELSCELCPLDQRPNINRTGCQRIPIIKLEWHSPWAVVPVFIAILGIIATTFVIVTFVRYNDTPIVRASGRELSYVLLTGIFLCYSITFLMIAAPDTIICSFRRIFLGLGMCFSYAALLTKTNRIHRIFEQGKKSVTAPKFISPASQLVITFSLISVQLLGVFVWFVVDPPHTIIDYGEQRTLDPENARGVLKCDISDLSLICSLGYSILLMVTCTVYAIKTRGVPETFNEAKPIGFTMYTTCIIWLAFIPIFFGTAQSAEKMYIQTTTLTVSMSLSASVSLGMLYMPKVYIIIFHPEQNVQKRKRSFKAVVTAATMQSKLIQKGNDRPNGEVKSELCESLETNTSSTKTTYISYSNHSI
row,SMILES,z-score
1,CCN(CC)CCCN1C(=O)c2oc3ccccc3c(=O)c2C1c1cccs1 (configuration not stated),active: 13.2
2,Cc1[nH]c(=O)[nH]c(=O)c1S(=O)(=O)N1CCCC(C(=O)NCCc2ccccc2)C1 (configuration not stated),0.415
3,c1coc(CNc2ncnc3ccccc23)c1,-0.0471
4,CC1CC(C)CN(C(=O)/C(=C\c2ccccc2)c2ccccc2)C1 (configuration not stated),-0.206
5,Cc1nnc(SCC(=O)c2cc(C)n(C3CC3)c2C)s1,0.0306
6,CC(c1nnc(SCC(=O)c2c(N)n(C)c(=O)n(C)c2=O)n1-c1ccc(Cl)cc1)N(C)C (configuration not stated),-0.257
7,COC(=O)C1=C(C)Nc2nnnn2C1c1cccnc1 (configuration not stated),-0.944
8,CC(C)OCCCn1c(=NC(=O)c2ccncc2)c(C#N)cc2c(=O)n3ccccc3nc21,-0.546
9,N#Cc1cccc(C(c2nnnn2Cc2ccccc2)N2CCCC2)c1 (configuration not stated),-0.026
10,CCNS(=O)(=O)c1cc(OC)ccc1OC,-0.256
11,Cc1cc(NC(=O)c2cccc(S(=O)(=O)N3CC(c4ccccc4)CC3=O)c2)no1 (configuration not stated),-0.591
12,O=C(Nc1ccc(N2CCCC2)c(Cl)c1)c1ccc2c(c1)OCCO2,2.58
13,CS(=O)(=O)N(Cc1ccc(C(=O)NCCSc2ccccn2)cc1)c1ccccc1,-0.215
14,O=C(CCC1CCCC1)N1CCC(N2CCN(c3ccccc3)CC2)CC1,-0.3
15,Cc1ccc(NC(=O)c2c(C(F)(F)F)nn(C)c2SCc2ccc(Cl)cc2)cc1C,-0.137
16,Cc1cc(SCC(N)=O)nc(SCC(=O)c2ccccc2)n1,0.0799
17,O=C(CSc1ccc(Cl)cc1)N1CCN(c2ccc(Cl)cc2[N+](=O)[O-])CC1,-0.109
18,CCn1c(SCC(=O)O)nnc1-c1cc2c(C)nn(-c3ccccc3)c2s1,-0.268
19,O=C(NC1(C(F)(F)F)NC(=O)N(CC2CCCCC2)C1=O)c1ccco1 (configuration not stated),0.164
20,COCCCNC(=S)N1CCN(C(=O)c2ccco2)CC1,-0.034
21,CC1CCC2C(=O)N(c3ccc(C(=O)Oc4cccc5cccnc45)cc3)C(=O)C2C1 (configuration not stated),0.0861
22,CCCN(CCC)CCNC(=O)C1c2ccccc2C(=O)N(CCOC)C1c1ccc(F)cc1 (configuration not stated),0.26

row,SMILES,z-score
1,COC(=O)c1cc(NC(=O)c2ccccc2)c(=O)oc1C/C=N\OCc1ccc(Cl)cc1Cl,0.00511
2,CC(C)Oc1cccc(C(=O)Nc2ccc(Br)cc2F)c1,-0.258
3,CCN1CCN(c2ccc([N+](=O)[O-])c(Sc3nc4ccccc4[nH]3)c2)CC1,-0.415
4,COc1ccc(C2=NN(c3nc4ccccc4s3)C(=O)/C2=C\N(C)C)cc1,-0.127
5,CCOC(=O)N1CCC(N2CC34C=CC(O3)C(C(=O)O)C4C2=O)CC1 (configuration not stated),0.198
6,O=C(O)CCC(=O)N1N=C(c2ccco2)CC1c1cccs1 (configuration not stated),-0.253
7,O=C1c2oc3ccc(Cl)cc3c(=O)c2C(c2ccco2)N1CCN1CCOCC1 (configuration not stated),0.841
8,CC(=O)c1cccc(N(C(=O)CS(=O)CC(=O)Nc2ccc(F)cc2)C(C(=O)NC2CCCCC2)c2ccc(C)o2)c1 (configuration not stated),-0.235
9,C=CCOC(=O)c1cc(-c2ccc(/C=C3\C(=O)NC(=O)C(C#N)=C3C)o2)ccc1Cl,-0.253
10,COc1ccc(Cn2nnnc2CN(Cc2cc3cc(C)ccc3[nH]c2=O)C2CCCC2)cc1,0.604
11,COCCCNC(=O)c1c(NC(=O)c2cccs2)sc2c1CCCC2,-0.00951
12,O=C1CC(c2ccc3c(c2)OCO3)c2cc3c(cc2N1)OCCO3 (configuration not stated),0.0815
13,COc1cc(/C=N/N=C2/C(=O)Nc3ccccc32)ccc1O,-0.325
14,Cc1ccc(C(=O)c2c[nH]cc2-c2ccccc2)cc1,-0.0163
15,CN(C)C(=O)N1CCN(C(=O)N(C)C)CC1,0.477
16,O=C(CN(C(=O)Cn1nnc(-c2cccs2)n1)c1ccc2c(c1)OCCO2)NC1CCCCC1,-0.0843
17,CCOc1ccc2c(c1)C(c1ccc(C)cc1)=NNC(c1ccc(OC)cc1)=N2,-0.237
18,Cc1ccc(Oc2nnc(-c3ccccc3)c3ccccc23)cc1,-0.491
19,Cc1ccc(N(C(=O)c2cc3ccccc3oc2=O)C2C=CS(=O)(=O)C2)cc1 (configuration not stated),-0.201
20,CCOC(=O)c1[nH]c(C)c(C(=O)NCCN2CCOCC2)c1C,-0.193
21,OCCn1c(SC2CCCCC2)nc2ccccc21,0.162
22,O=C(/C=C/c1ccc2c(c1)OCCCO2)c1ccc2ccccc2c1O,0.573

row,SMILES,z-score
1,Cc1nn2c(NCCOCCO)c3c(nc2c1-c1ccccc1)CCCC3,-0.295
2,c1ccc(-c2nc(N3CCNCC3)nc3ccccc23)cc1,0.808
3,COc1ccc(Cc2nnc(NC(=O)c3ccco3)s2)cc1,-0.607
4,COc1cc2c(cc1OC)CN(Cc1cc(=O)oc3c(C)c(C)ccc13)CC2,-0.0606
5,CCOc1ccc(NC(=O)NCCN2C(C)CCCC2C)cc1 (configuration not stated),0.00245
6,O=C(NC(=S)N(Cc1ccccc1)c1ccccn1)C1CCCCC1,0.425
7,CC(NC(=O)CC(c1ccccc1)c1cc(Cl)ccc1O)c1ccccc1 (configuration not stated),-0.843
8,CCn1c(SCC(=O)Nc2cc(C)on2)nnc1-c1ccccc1,-0.0132
9,Cc1cc(C)c(NC(=O)C2CCCN2C)c(C)c1 (configuration not stated),-0.0987
10,CC1CCN(CCc2nc3cc(NC(=O)Nc4ccccc4)ccc3n2C)CC1,0.703
11,COC(=O)[C@H](Cc1ccccc1)NC(=O)NCCC1=CCCCC1,0.746
12,CCc1cc2ccc(C)cc2nc1SCC(=O)N1CCN(C(=O)c2ccco2)CC1,1.74
13,O=C(Nc1cccc(NC(=O)C2CC3CCCC(C2)C3=O)n1)C1CC2CCCC(C1)C2=O (configuration not stated),-0.142
14,CCN(CC)S(=O)(=O)c1ccc(-c2nnc(SCc3nnc(-c4ccccc4)o3)o2)cc1,-0.338
15,COc1ccc(C2(C(=O)O)CCCC2)cc1,-0.0964
16,COC(=O)C(C)Sc1n[nH]c(=S)s1 (configuration not stated),0.629
17,CC(C)c1ccc(NC(=O)C2CCN(S(C)(=O)=O)CC2)cc1,0.101
18,COc1ccc(-c2ccc(-c3noc(-c4ccccc4OC)n3)c(OC)n2)cc1,0.242
19,Cc1cc(OC(=O)c2ccco2)c2c(C)cc(=O)oc2c1,-0.119
20,COc1ccc(CN2CCOCC2)c(C)c1C,0.151
21,CCCCCCC(=O)Nc1ccc(Cl)cn1,-0.197
22,CC(C)=C1C2CCC1C1C(=O)N(NC(=O)COc3ccc(C(C)(C)C)cc3)C(=O)C21 (configuration not stated),0.854

row,SMILES,z-score
1,O=C(Cn1nc(Cc2cccnc2)c2ccccc2c1=O)NCC1CCCO1 (configuration not stated),-0.128
2,O=C1OC(Cc2ccccn2)C(=O)C1=C1SCCS1 (configuration not stated),-0.296
3,COc1ccc(CN2CCN(C(=O)CN3C(=O)C4C5C=CC(C5)C4C3=O)CC2)c(OC)c1OC (configuration not stated),-0.242
4,O=C(COc1ccc(Cl)cc1Cl)NN=C1c2ccccc2-c2ccccc21,0.00874
5,O=C(Nc1ncc(Cl)cn1)c1cccs1,0.0318
6,CCOc1cc(NC(=S)NCC2CCCO2)c(OCC)cc1NC(=O)c1ccc(OC)cc1 (configuration not stated),-0.0591
7,COc1cc([C@@H]2[C@H]3CNCC=C3C(C#N)=C(N)C2(C#N)C#N)ccc1OC(C)C,-1.4
8,O=S(=O)(NCCc1ccncc1)c1cc(Br)ccc1F,-0.0992
9,CCS(=O)(=O)NCC(c1cccnc1)N1CCN(c2ccccc2F)CC1 (configuration not stated),-0.0737
10,O=C(Nc1ccc2ccccc2c1)c1cnccn1,-0.0533
11,COc1ccccc1N1CCN(C(=O)CSc2ncccc2-c2nc3ccccc3[nH]2)CC1,-0.299
12,Cc1noc(/C=C/NCc2cccnc2)c1S(=O)(=O)N(C)CC(=O)N1CCc2ccccc21,-0.262
13,COc1ccc(C2NC3=C(CCC3)C3(C#N)C(OC)(OC)N=C(N)C23C#N)cc1 (configuration not stated),-0.179
14,c1ccc([C@H]2CC3C[C@@H](c4ccccc4)N2O3)cc1,-0.00514
15,CC(=O)Nc1ccc(S(=O)(=O)NC2(C(F)(F)F)NC(=O)N(C3CCCC3)C2=O)cc1 (configuration not stated),-0.127
16,O=C(CCNC(=O)c1ccc(Cl)cc1)Nc1ccc(Cl)cc1F,-0.0435
17,CCOC(=O)c1cnc(-n2nc(C)cc2C)nc1Nc1ccc(C)cc1,-0.102
18,CN(C)C(=O)c1cnc(Sc2ncc(C(F)(F)F)cc2Cl)n1C,0.0512
19,COc1cc(/C=C2\SC(=Nc3ccccc3)N(Cc3ccco3)C2=O)ccc1OC(C)C(=O)O (configuration not stated),-1.1
20,CC(=O)Nc1ccccc1C(=O)C(=O)Nc1cccc(C(=O)NC2CC2)c1,-0.155
21,C=CCNC(=S)NNC(=O)C(CCC(C)C)CC(C)(C)O (configuration not stated),-0.0486
22,CCCCNc1nc(CC(C)=O)ns1,0.435

row,SMILES,z-score
1,CC1Cc2ccccc2N1C1=NS(=O)(=O)c2ccccc21 (configuration not stated),0.217
2,COc1ccc(NS(=O)(=O)c2cc(NC(=O)[C@@H](NC(=O)c3ccccc3)C(C)C)ccc2C)cc1,-0.302
3,CN(C)CC(=O)N1c2ccccc2CCc2ccc(NC(=O)c3ccc(N)cc3)cc21,0.311
4,COc1ccc(-c2nnn(CC(=O)Nc3sc4c(c3C#N)CCCC4)n2)cc1,0.36
5,C=CCn1c(SCC(=O)C(C)(C)C)nnc1-c1ccccn1,-0.555
6,CCC(C)c1c(O)nc(SCc2ccccc2)[nH]c1=O (configuration not stated),0.256
7,Cc1cccc(N2CCN(C(=O)Cc3ccc(-n4c(=O)[nH]c5ccsc5c4=O)cc3)CC2C)c1 (configuration not stated),0.108
8,NNC(=O)C=C1CCN(c2ncc(C(F)(F)F)cc2Cl)CC1,0.00385
9,Cc1ccc(N2CC(C(=O)NCc3ccccn3)CC2=O)cc1 (configuration not stated),-0.442
10,CC1(C)CC(=O)c2cc(NC(=O)c3ccccc3)c(=O)oc2C1,0.164
11,COc1ccc(-c2cc(C(F)(F)F)c(C#N)c(SCC(=O)Nc3nc(C)co3)n2)cc1,-0.185
12,Nc1nnc(CSCc2ccc(Cl)cc2Cl)s1,-0.105
13,COc1ccc(C2C(C(=O)OCC(=O)N3CCCCC3)CCC(=O)N2c2ccc(OC)cc2)cc1 (configuration not stated),-0.185
14,CCC(c1nnnn1Cc1ccco1)N1CCN(c2cc(Cl)ccc2C)CC1 (configuration not stated),-0.242
15,COC(=O)C1CCN(C(=O)NC2CCCCC2)CC1,-0.11
16,O=C(CSc1nc2c(c(=O)n1-c1ccc(Br)cc1)SCC2)NCC1CCCO1 (configuration not stated),-0.367
17,Cc1cccc(Cn2c(N3CCCCC3C)nc3c2c(=O)[nH]c(=O)n3C)c1 (configuration not stated),0.156
18,Cc1ccccc1-c1nsc(SCC(=O)NCc2ccc3c(c2)OCO3)n1,-0.268
19,Cc1cc(N2CCN(C(=O)c3ccco3)CC2)n2nc(-c3cccc(F)c3)cc2n1,-0.927
